# Assay results reported in PubChem BioAssay AID651582 (Sanford-Burnham Center for Chemical Genomics, 2012).
# “And” between values parts separate entries of the source, which are not always exact repeats. Identical values can stand only once. The list shows a part of the results. Shown are side measurements of this screen, not its main read-out; they come without a call. Compounds called inactive in the main read-out are mostly missing here.
# Assay: inhibitors of triacylglycerol accumulation, primary screen, cell-based, uHTS, fluorescence, H9c2 (AID 651582)
# Conditions: H9c2 cells, Nile Red lipid (TAG) fluorescence; measured here:; at 12.5 µM; cells loaded with 200 µM oleic acid
row,SMILES,"DAPI nuclei signal change (viability), lower = more cytotoxic"
1,CC(/C=N/NC(=O)c1n[nH]c2c1CCC2)=C\c1ccccc1,-18%
2,COc1ccc(Nc2oc(-c3ccc(Cl)cc3)nc2C#N)cc1,4.9%
3,CCOc1c(Cl)cc(CNc2ccc(N3CCCC3)cc2)cc1OC,-9.19%
4,COc1cc(C(=O)NC2CCN(C)CC2)ccc1Nc1ncc2c(n1)N(C1CCCCC1)CCC(=O)N2C,-27.5%
5,CCOc1ccc(CCNC(=O)CCc2nc(-c3ccc(OC)cc3)no2)cc1OCC,0.264%
6,COC(=O)c1ccc(NC(=O)COc2ccc(C3C(C#N)=C(N)Oc4c3ccc3ccccc43)cc2OC)cc1 (stereo unspecified),-13.5%
7,NCCC(=O)N1c2ccccc2Sc2ccc(Cl)cc21,-32.5%
8,CCC[C@@H](CN[C@@H](CNC)[C@H](C)CC)NCC1CCC(C(C)(C)C)CC1 (stereo partly specified),-40.5%
9,COc1ccc(C2NCCc3c2[nH]c2ccccc32)cc1CSc1nc2ccccc2s1 (stereo unspecified),8.98%
10,CN(C)c1ccc(CN2CCC(C(=O)NC(c3ccc(F)cc3)c3ccc4ccccc4n3)CC2)cc1 (stereo unspecified),-28.2%
11,O=C(Nc1cccc(-c2csc(Nc3cccc(C(F)(F)F)c3)n2)c1)c1cc([N+](=O)[O-])cc(C(F)(F)F)c1,-25.2%
12,CC(C)(C)c1cc(NC(=O)C2(C)CCN2C(=O)C2(c3ccccc3)CCCC2)no1 (stereo unspecified),-4.05%
13,O=c1cc(N2CCN(c3cccc(Cl)c3)CC2)[nH]c(=O)n1C1CCCCC1,-49.6%
14,O=C(Cn1cc(C(=O)C2CC2)c2ccccc21)NCc1ccc2c(c1)OCO2,-3.14%
15,Cc1cccc2c(N=Nc3ccc(S(=O)(=O)Nc4ccc(Cl)cc4)cc3[N+](=O)[O-])c(O)[nH]c12,-15.2%
16,CC(=O)O[C@H]1C(=O)[C@@]2(C)[C@H]([C@H](OC(=O)c3ccccc3)[C@]3(O)C[C@H](OC(=O)[C@H](O)[C@@H](NC(=O)c4ccccc4)c4ccccc4)C(C)=C1C3(C)C)[C@]1(OC(C)=O)CO[C@@H]1C[C@@H]2O,-40.3%
17,Cc1noc(C)c1-c1ccc2ncnc(NCC3CCCCN3C)c2c1 (stereo unspecified),13.9%
18,COC(=O)c1ccc(C(=O)OC)c(NC(=O)CN2CCN(c3ccc(OC)cc3)CC2)c1,-22.9%
19,COc1cc(-c2cc3nc(NCCOc4ccccc4)ccn3n2)cc(OC)c1OC,-9.88%
20,CCCCCCCC(=O)Nc1cc(C(=O)NCCC)ccc1N1CCC2(CC1)CC(c1cccc(Br)c1)=NO2,7.35%
21,CC1(C)CC(=O)C2=C(C1)NC(SCC(=O)Nc1ccccc1)=C(C#N)C21CCCCC1,82.7%
22,CS(=O)(=O)c1ccc(C(=O)OCC(=O)N2CCOCC2)cc1[N+](=O)[O-],-26.5%
23,CCN1CCN(Cc2ccc(NC(=O)c3cc(NC(=O)c4cncc(-c5ccc(C#N)cc5)c4)cc(OC)c3)cc2C(F)(F)F)CC1,9.22% and -5.99%

row,SMILES,"DAPI nuclei signal change (viability), lower = more cytotoxic"
1,CCN(CC)CCCNc1nc2cc(OC)c(OC)cc2c2nc(-c3ccccc3)nn12,58.7%
2,CCCCCc1ccc(-c2cn(Cc3ccc(C(=O)c4ccccc4)cc3)nn2)cc1,-21.4%
3,CCCCCC(=O)Nc1nc(C)c(-c2csc(Nc3cc(OC)ccc3OC)n2)s1,-8.23%
4,Cc1[nH]c2ccccc2c1C(c1ccccn1)N1CCC(C)CC1 (stereo unspecified),-28.8%
5,CCN1CCN(c2ncc3c(n2)CC(c2cc(OC)c(OC)c(OC)c2)CC3=O)CC1 (stereo unspecified),-4.74%
6,Cc1ccc(-n2ncc(Br)c(Br)c2=O)cc1,-25.9%
7,Cc1cc(Br)ccc1NC(=O)CNC(=O)Cn1ncc(Cl)c(Cl)c1=O,-11.5%
8,C=CCC[C@H](Cc1ccc(F)cc1)C(=O)OC[C@@H](NC(=O)[C@@H](CC=C)CC(=O)N(CCO)Cc1ccccc1)C(C)(C)C,-25.7%
9,CCCCOc1ccccc1C1CC(=O)NC2=C1C(=O)CCC2 (stereo unspecified),-23.2%
10,CCCCOc1ccc(NC(=O)C(=O)NCCC2=CCCCC2)cc1,-36.6%
11,CC(C)(C)c1ccc(C(=O)NCCC(=O)Nc2cc(Cl)ccc2N2CCOCC2)cc1,-6.24%
12,CCC(C)(C)NC(=O)C(c1ccc(OC)cc1)N(CC1CCCO1)C(=O)CCC(=O)Nc1cc(C)on1 (stereo unspecified),2.68%
13,Cn1nnnc1Sc1ncnc2scc(-c3cccc(Br)c3)c12,-0.663%
14,Cc1noc(C)c1CSc1nc2[nH]ncc2c(=O)n1-c1ccccc1,-8.21%
15,COc1cc(C#Cc2c(-c3cncn3C)n(C)c3ccc(-c4ccc(OC)c(OC)c4)cc23)cc(OC)c1,107%
16,CSC(=S)NN=C(C)c1cccc(C)n1,-29.3%
17,O=C(Nc1nc(-c2ccccn2)cs1)c1ccccc1-n1cnnn1,-30%
18,Cc1cn(-c2cc(C(=O)Nc3ccc(C)c(NC(=O)C(=O)c4c[nH]c5ccccc45)c3)cc(C(F)(F)F)c2)cn1,1.53%
19,COc1cc(C2C(C#N)=C(N)Oc3cc4c(cc32)OCO4)cc(OC)c1OC (stereo unspecified),-30.6%
20,O=[N+]([O-])c1ccc(Sc2cccc[n+]2[O-])c2nonc12,-43.9%
21,CCOc1ccc(NC(=O)Cn2nnc(-c3ccccc3NC(=O)C3CC3)n2)cc1,-20.5%
22,CN(C)c1ncnc2c1ncn2C1OC(CO)C(O)C1O (stereo unspecified),-46.2%
23,CC(C)(C)c1ccc(Oc2ccc(NC(=O)c3ccccc3C(=O)O)cn2)cc1,-45.3%
